Lines with a small IC50 respond at low doses; fits outside the tested doses are given as limits. AUC is the area under the same curve over the 256-fold range up to the top dose, as a fraction; the more sensitive the line, the further below 1. For part of these data: An inferred top dose was derived from the fitted curves, not read from the paper. For part of these data: Where an entry number is given, a second screen of the drug exists; the two often differ.
Legend:
Test in all cases: Viability of human cancer cell lines after 72 h of drug (GDSC screen)
OSU-03012 = compound: NCC(=O)Nc1ccc(-n2nc(C(F)(F)F)cc2-c2ccc3c(ccc4ccccc43)c2)cc1 [OSU-03012]; settings: top dose 16 µM; top dose inferred
Experimental: (§1)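 Human cancer cell lines in 384-well plates, medium with 10% serum, drug for 72 h over a 256-fold dose range (nine 2-fold or five 4-fold steps up to the top dose). Adherent lines were fixed and stained with the nucleic acid dye Syto60, suspension lines read with resazurin; signal relative to control wells, capped at 0 and 100%. One two-parameter sigmoid per drug and line, fitted in a mixed model over all curves with the slope shared within a line.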

5-Fluorouracil = compound: O=c1[nH]cc(F)c(=O)[nH]1 [5-Fluorouracil]; settings: top dose 32 µM; top dose inferred
Experimental: as §1

RDEA119 = compound: COc1cc(F)c(F)c(Nc2ccc(I)cc2F)c1NS(=O)(=O)C1(C[C@H](O)CO)CC1 [RDEA119]; settings: top dose 5 µM, top dose inferred
Experimental: as §1

AC220 = compound: CC(C)(C)c1cc(NC(=O)Nc2ccc(-c3cn4c(n3)sc3cc(OCCN5CCOCC5)ccc34)cc2)no1 [AC220]; settings: top dose 1.024 µM; top dose inferred
Experimental: as §1

JNK-9L = compound: Fc1cc(-c2ccnc(Nc3ccc(-n4cnc(N5CCOCC5)n4)cc3)n2)cc(N2CCOCC2)c1 [JNK-9L]; settings: top dose 5.12 µM; top dose inferred
Experimental: as §1

QS11 = compound: OC[C@H](Cc1ccccc1)Nc1nc(Oc2ccc3c(c2)CCC3)nc2c1ncn2Cc1ccc(-c2ccccc2)cc1 [QS11]; settings: top dose 10.24 µM
Experimental: as §1

CUDC-101 = compound: C#Cc1cccc(Nc2ncnc3cc(OC)c(OCCCCCCC(=O)NO)cc23)c1 [CUDC-101]; settings: top dose 5.12 µM; top dose inferred
Experimental: as §1

Cell Line | AUC (OSU-03012) | IC50 (OSU-03012) [µM] | AUC (5-Fluorouracil) | IC50 (5-Fluorouracil) [µM] | AUC (RDEA119; screen: GDSC drug entry 1014) | IC50 (RDEA119; screen: GDSC drug entry 1014) [µM] | AUC (RDEA119; screen: GDSC drug entry 1526) | IC50 (RDEA119; screen: GDSC drug entry 1526) [µM] | AUC (AC220) | IC50 (AC220) [µM] | AUC (JNK-9L) | IC50 (JNK-9L) [µM] | AUC (QS11) | IC50 (QS11) [µM] | AUC (CUDC-101) | IC50 (CUDC-101) [µM]
HLE (liver, adherent) | 0.68 | 3.09 | 0.909 | > 32 | 0.943 | > 5 | 0.919 | > 5 | 0.989 | > 1.02 | 0.531 | 0.388 | 0.84 | 6.48 | 0.478 | 0.28
NCI-H2030 (lung adenocarcinoma, adherent) | 0.735 | 5.2 | 0.834 | 25.1 | 0.86 | > 5 | 0.625 | 0.725 | 0.96 | > 1.02 | 0.45 | 0.23 | 0.78 | 4.84 | 0.658 | 0.939
NCI-H2023 (lung adenocarcinoma, adherent) | 0.821 | 12.5 | 0.906 | > 32 | 0.881 | > 5 | 0.803 | 3.22 | 0.965 | > 1.02 | 0.798 | 3.15 | 0.884 | > 10.2 | 0.851 | > 5.12
CAKI-1 (kidney, adherent) | 0.84 | > 16 | 0.824 | > 32 | – | – | 0.757 | 2.56 | 0.976 | > 1.02 | 0.517 | 0.365 | 0.958 | > 10.2 | 0.686 | 1.39
LOXIMVI (melanoma, semi-adherent) | 0.769 | 5.39 | 0.903 | > 32 | 0.509 | 0.33 | 0.551 | 0.424 | 0.99 | > 1.02 | 0.595 | 0.565 | 0.923 | > 10.2 | 0.589 | 0.545
MG-63 (osteosarcoma, adherent) | 0.629 | 2.4 | 0.854 | 31.8 | 0.755 | 1.94 | 0.813 | 3.23 | 0.984 | > 1.02 | 0.527 | 0.385 | 0.795 | 5.64 | 0.983 | > 5.12
HARA (lung squamous cell carcinoma, adherent) | 0.69 | 3.77 | 0.743 | 11.3 | 0.856 | > 5 | 0.852 | 4.92 | 0.982 | > 1.02 | 0.673 | 1.06 | 0.968 | > 10.2 | 0.582 | 0.559
NH-12 (neuroblastoma, adherent) | 0.718 | 4.5 | 0.691 | 7.4 | 0.698 | – | 0.85 | 4.53 | 0.97 | > 1.02 | 0.557 | – | 0.898 | > 10.2 | 0.497 | 0.314
GCT (soft tissue, adherent) | 0.882 | 14.9 | 0.989 | > 32 | – | – | 0.919 | > 5 | 0.989 | > 1.02 | 0.467 | 0.263 | 0.989 | > 10.2 | 0.933 | > 5.12

— the supplement of paper PMC4967469
